Reference: publication PMC4336329 (PLoS ONE, 2015)
The whole screen tested about 310,000 compounds, of which about 14,000 (4.5%) showed an effect of 50% or more. The effect is printed as a negative number. The list shows a part of the results.

target: human ether-à-go-go-related gene (hERG) potassium channel (human, UniProt Q12809); test: primary screen, population patch clamp on CHO cells stably expressing hERG
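Also: peak tail current of the secondary pulse compared with the same well before compound.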

human ether-à-go-go-related gene (hERG) potassium channel, sequence (Q12809 whole entry, looked up): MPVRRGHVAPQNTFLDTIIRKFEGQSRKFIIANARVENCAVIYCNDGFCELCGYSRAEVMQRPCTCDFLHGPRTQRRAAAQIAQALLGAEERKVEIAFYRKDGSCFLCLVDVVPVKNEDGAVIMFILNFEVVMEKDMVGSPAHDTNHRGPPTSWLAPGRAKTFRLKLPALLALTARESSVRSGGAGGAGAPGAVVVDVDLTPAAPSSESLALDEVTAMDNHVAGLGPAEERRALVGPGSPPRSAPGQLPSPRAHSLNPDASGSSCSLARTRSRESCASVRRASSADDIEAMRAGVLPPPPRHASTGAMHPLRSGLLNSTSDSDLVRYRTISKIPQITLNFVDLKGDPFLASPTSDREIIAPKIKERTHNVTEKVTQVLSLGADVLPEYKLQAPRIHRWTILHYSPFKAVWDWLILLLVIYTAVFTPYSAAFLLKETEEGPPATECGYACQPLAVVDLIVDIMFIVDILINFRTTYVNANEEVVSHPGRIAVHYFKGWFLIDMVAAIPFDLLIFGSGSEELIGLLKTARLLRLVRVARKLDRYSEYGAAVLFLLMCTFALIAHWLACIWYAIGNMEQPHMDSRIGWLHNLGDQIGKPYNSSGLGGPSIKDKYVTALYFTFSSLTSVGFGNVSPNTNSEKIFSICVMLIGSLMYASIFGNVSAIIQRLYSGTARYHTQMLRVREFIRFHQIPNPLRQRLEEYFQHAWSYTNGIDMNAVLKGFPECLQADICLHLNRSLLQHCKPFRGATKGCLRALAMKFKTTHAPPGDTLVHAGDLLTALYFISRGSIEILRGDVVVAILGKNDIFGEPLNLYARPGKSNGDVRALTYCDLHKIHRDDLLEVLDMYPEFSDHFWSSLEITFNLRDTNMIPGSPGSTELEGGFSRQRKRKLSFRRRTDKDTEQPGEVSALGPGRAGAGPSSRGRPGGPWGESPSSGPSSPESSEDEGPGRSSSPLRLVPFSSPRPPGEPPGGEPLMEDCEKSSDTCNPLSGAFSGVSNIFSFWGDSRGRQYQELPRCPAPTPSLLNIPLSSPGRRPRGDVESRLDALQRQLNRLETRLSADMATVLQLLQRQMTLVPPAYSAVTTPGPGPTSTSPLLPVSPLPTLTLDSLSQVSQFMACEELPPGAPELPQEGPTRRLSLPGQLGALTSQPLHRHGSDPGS

Compound | hERG current change (%, negative = inhibition) at 10uM [%]
COc1cccc(NC(=O)CSc2nccn(-c3ccc4c(c3)OCCO4)c2=O)c1 | -13.7
Cc1csc(NS(=O)(=O)c2ccc(Cl)cc2)n1 | -6.37
COc1ccc(-c2nn(-c3ccccc3)cc2CNC(C)Cn2cncn2)c(F)c1 (stereo not shown) | -13
O=C(Nc1cccc(C(=O)N2CCCCC2)c1)c1ccc(Cl)cc1 | 19.8
CCN1C(=O)C2C(c3ccccc3F)NC(Cc3ccc(O)cc3)(C(=O)OC)C2C1=O (stereo not shown) | 3.06
COc1ccc(Oc2ccccc2/C=N/O)cc1 | 4.99
Cc1c(CCC(=O)O)c(=O)oc2cc(OCc3ccccc3F)ccc12 | 27.4
COc1ccc(C(=NN)c2ccc(OC)cc2)cc1 | 10.5
CC(C)OCCCN1C(=O)c2[nH]nc(-c3ccccc3O)c2C1c1cccc(Cl)c1 (stereo not shown) | -25.7
Cc1noc(C)c1COc1ccccc1C(=O)NCc1ccco1 | -5.55
O=C(C1CCN(S(=O)(=O)c2cccc3cccnc23)CC1)N1CCn2c1nc1ccccc12 | -9.66
CCN(CC)c1ncccc1C(=O)NCc1cccs1 | 0.576
CCn1c(SCC(=O)NC(=O)NCc2ccco2)nc2sc(C)c(C)c2c1=O | 12.5
N#Cc1nc(COc2ccccc2)oc1NCCCn1ccnc1 | -50
O=C(NCc1cccc(Cl)c1)c1ccc2c(c1)SC1=NS(=O)(=O)CCN12 | -5.52
COC(=O)C1=Nc2ccccc2/C1=C\c1c(O)n(-c2ccc(Br)cc2)c(=O)[nH]c1=O | 18.4
CCOC(=O)C[C@H]1c2ccc(C(F)(F)F)cc2S(=O)(=O)N1C(C)(C)C | 4.31
COc1cc(C2C(=O)N(C3CCCC3)CC(=O)N2Cc2ccco2)ccc1OC(C)C (stereo not shown) | -27.6
CC(C)c1nccn1S(=O)(=O)c1cccc([N+](=O)[O-])c1 | 0.907
COc1ccc(CC(=O)Nc2cccc(C(=O)Nc3ccccc3C(=O)O)c2)cc1OC | 1.48
Cc1ccc(C(C)(C)C)cc1S(=O)(=O)Nc1ncnc2sccc12 | 12.2
COC(=O)C(NC(=O)CSc1nc(N)cc(=O)[nH]1)c1ccccc1 (stereo not shown) | 18.3
CCCS(=O)(=O)N1CCCC(C(=O)NCCN(CC)CC)C1 (stereo not shown) | 22.7
O=C(COC(=O)CCCN1C(=O)c2cccc3cccc(c23)C1=O)Nc1cccc(C(F)(F)F)c1 | 3.65
O=C(O)COc1c(Cl)cc(/C=C2\NC(=O)NC2=O)cc1Br | 24.1
OCc1nc2ccccc2n1CCCOc1ccc(Br)cc1 | -36.8
COc1ccc(CNC(=O)C2CCN(S(=O)(=O)c3ccc4c(c3)NC(=O)C(C)S4)CC2)cc1 (stereo not shown) | -9.31
Cc1ccc(Nc2c(-c3ccccc3)nc3cnccn23)cc1 | -1.06

Compound | hERG current change (%, negative = inhibition) at 10uM [%]
COc1ccc(CNC(=O)Cc2cccs2)cc1 | 15
COc1ccc(CCNC(=O)c2cc3c(cc2Cl)N2CCCCCC2=NS3(=O)=O)cc1 | -31.5
Cc1cc2ccccc2c(=O)n1CC(=O)NCC(=O)N1CCCC(C)C1 (stereo not shown) | 11.9
COc1ccc(/C(N)=N/OC(=O)Cc2ccccc2)cc1 | 5.67
COC(=O)c1cc(=O)nc2scc(C)n12 | -23.1
CNC(=O)c1cc2cc(OC)ccc2n1CCN(C)C | -11.6
COc1ccc(CNC(=O)C2CCN(S(C)(=O)=O)CC2)c(OC)c1 | 4.8
CCOc1ccc(S(=O)(=O)N2CCCC(C(=O)NCc3cccnc3)C2)cc1Cl (stereo not shown) | -30.1
COCCNc1oc(/C=C/c2ccccc2)nc1C#N | 1.87
CCCCN(CC)CCCNC(=O)c1ccc2c(c1)N(CC)C(=O)c1ccccc1S2(=O)=O | -16.6
CC(C)C(=O)c1cn(CC(=O)NCc2ccco2)c2ccccc12 | 11.5
COc1ccccc1NC(=O)CSc1ccc2nnc(CCNC(=O)c3ccccc3)n2n1 | 12.9
CNC(=O)COc1ccc(S(=O)(=O)Nc2ccc(OC)cc2)cc1 | 14.1
O=C(Nc1ccccc1-c1nnn(CC(=O)N2CCCc3ccccc32)n1)c1cccc(Cl)c1 | 3.04
O=Cc1c(NCCN2CCOCC2)c2ccccc2[nH]c1=O | 28.8
CC1CCCC(C)N1S(=O)(=O)c1ccc(NC(=O)CNCC2CCCO2)cc1.O=C(O)C(=O)O (stereo not shown) | -18
COc1ccc([C@@H]2CC=C(C(=O)O)[C@H](c3cccc(Cl)c3)N2S(=O)(=O)c2ccccc2C)cc1 | 24.4
Cc1ccc2[nH]c(=O)c(CN(C)S(=O)(=O)c3cccc4nonc34)cc2c1 | 12.7
COc1cccc(CSc2nnc(-c3ccncc3)n2N)c1 | 7.77
CC(Cc1c[nH]c2ccccc12)C(=O)NCc1ccco1 (stereo not shown) | 14
Cc1cc(C(F)(F)F)n2nc(C)c(-c3ccc(Cl)cc3)c2n1 | 11.9
CCOC(=O)C1CCN(S(=O)(=O)c2ccc(Cl)cc2)CC1 | -40.8
CCCS(=O)(=O)n1nc(-c2ccc(C)cc2)cc1N | 7.45
Cc1ccc(C)c2[nH]c(=O)c(CN(CC3CCCO3)C(=S)NCc3ccco3)cc12 (stereo not shown) | -24.3
Cn1cc([C@@H]2C[C@H]3CN(Cc4cccc(Cl)c4)C(=O)[C@]34CCCN24)c(-c2ccccc2)n1 | -63.3
Cc1ccc(NC(=O)OCCN2CCN(Cc3ccccc3)CCC2=O)cc1 | -11.5
COc1cccc(NC(=O)c2cccc(N3C(=O)C4CCC(C)CC4C3=O)c2)c1 (stereo not shown) | 4.01
